# Screen size: about 340,000 compounds; about 6,900 (2%) were called active. Cut-off read from the data, not from the text of the source: active = inhibition above about 30%; inactive = below that, where a call was filed. The list shows a part of the results, in another mix than the full data. Entries without a call were filed so in the source.
# Biological target: D(2) dopamine receptor (Homo sapiens) (UniProt P14416)
# Assay: HTS Assay for Allosteric Antagonists of the Human D2 Dopamine Receptor: Primary Screen for Antagonists; note: 0% is about no effect
# Details: HEK293 TREx D2 cells, calcium flux, dopamine EC80; at 10 µM; stronger effect = higher value
# Procedure, shortened: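 Inhibition of EC80 dopamine-driven calcium flux, recorded kinetically, defines activity here; cells are a tetracycline-induced HEK293 T-REx line expressing force-coupled D2.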
# Chain of UniProt P14416 (P14416 whole entry, looked up): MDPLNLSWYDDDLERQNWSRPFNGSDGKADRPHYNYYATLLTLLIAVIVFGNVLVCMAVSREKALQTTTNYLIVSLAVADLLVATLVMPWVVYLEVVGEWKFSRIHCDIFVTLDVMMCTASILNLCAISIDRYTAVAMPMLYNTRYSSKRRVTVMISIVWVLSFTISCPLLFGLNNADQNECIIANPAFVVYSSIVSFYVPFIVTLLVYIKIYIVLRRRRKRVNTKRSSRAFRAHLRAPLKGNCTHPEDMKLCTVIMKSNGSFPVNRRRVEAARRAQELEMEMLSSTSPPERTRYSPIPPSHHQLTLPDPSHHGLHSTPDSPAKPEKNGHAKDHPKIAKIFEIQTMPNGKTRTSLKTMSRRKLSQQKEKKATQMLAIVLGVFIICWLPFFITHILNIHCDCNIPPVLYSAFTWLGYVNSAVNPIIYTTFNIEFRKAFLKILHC
row,SMILES,inhibition
1,COc1ccc(CCNC(=O)c2cc(=O)c3ccc(C)cc3o2)cc1OC,-2.92%
2,CCCCCn1c(=O)[nH]c2cc(C(=O)NC(C)CC)ccc2c1=O (configuration not stated),7.58%
3,CCOc1ccc(CNC(=O)c2ccc3c(c2)nc2n3CCCCC2)cc1,-5.32%
4,COc1ccc(C(=O)Nc2ccc3oc(-c4cccnc4)nc3c2)cc1OC,14.4%
5,C=C1CC(C)OC(c2ccccc2OCC(O)CN2CCCCC2)C1 (configuration not stated),active: 65.1%
6,COCCn1c(=O)[nH]c2cc(C(=O)Nc3ccc(OC)cc3)ccc2c1=O,10.5%
7,Cc1cc(C)n(-c2nc3ccccc3nc2Nc2cc(Cl)ccc2C)n1,15.7%
8,Cc1cc(C)c2nc(N(Cc3cccnc3)C(=O)Cc3ccccc3)sc2c1,2.15%
9,CC(CCN1CCN(c2ccc(F)cc2)CC1)c1ccccc1 (configuration not stated),active: 87.7%
10,Cc1cc(NC(=O)Nc2nnc(N3CCCCC3)s2)ccc1Br,-17.6%
11,CCN(Cc1ccccc1)C(=O)Cn1c(=O)n(-c2ccc(Cl)c(Cl)c2)c(=O)c2c(C)c(C(=O)N(C)C)sc21,26.9%
12,COc1ccccc1CNC(=O)CSc1nc(=O)[nH]c2c1CCCC2,26.5%
13,Cc1ccc(NC(=O)CCn2c(=O)c3cccn3c3ccccc32)cc1Cl,2.14%
14,COc1ccc(N2CC(NC(=O)C(=O)c3c(C)[nH]c4ccccc34)CC2=O)cc1 (configuration not stated),-15.2%
15,COc1cc(OC)c(NC(=O)Cn2cnc3sc(C)c(S(=O)(=O)N4CCC(C)CC4)c3c2=O)cc1Cl,0.618%
16,COc1ccc(-c2nc3ccc(Cl)cn3c2Nc2ccc(C)cc2)cc1,-11.5%
17,COc1ccc(OCC2c3cc(OC)c(OC)cc3CCN2C(=O)c2c(F)cccc2F)cc1 (configuration not stated),9.15%
18,CCc1ccc(-n2nc(CO)c(C(=O)NCc3cccs3)n2)cc1,-5.49%
19,Cc1cc(C)cc(NC(=O)COCc2cc(-c3ccc4c(c3)OCO4)on2)c1,6.21%
20,COc1cccc(-c2nc(CS(=O)(=O)CC(=O)NCCc3ccc(Cl)cc3)c(C)o2)c1,-3.79%
21,Cc1ccc(-n2ncc3c(Nc4cccc(C(F)(F)F)c4)ncnc32)cc1C,-10.5%
22,Cc1cc2c(cc1S(=O)(=O)NCc1ccccc1Cl)OCC(=O)N2,14.3%
23,CC1CCCCN1C(=O)CSc1c2c(nc3cc(Cl)ccc13)CCCC2 (configuration not stated),10.3%
24,CCOCCn1c(=O)c2c(nc3n2CCN3c2ccc(C)c(C)c2)n(C)c1=O,7.39%
25,CCN1CCN(c2nc(Nc3cccc(C)c3)nc(N)c2[N+](=O)[O-])CC1,active: 84.9%

row,SMILES,inhibition
1,COc1cccc(N2CCN(C(=O)C3CCN(S(=O)(=O)c4cn(C)cn4)CC3)CC2)c1,2.38%
2,NS(=O)(=O)c1ccc(NC(=O)c2csnn2)cc1,-16.7%
3,CC(C)c1ccc(NC(=O)c2cnc3sc(N4CCOCC4)nn3c2=O)cc1,-5.91%
4,COc1ccc(NC(=O)CN(C)S(=O)(=O)c2ccc3c(c2)c(=O)n(C)c(=O)n3C)cc1,9.93%
5,COc1ccc(OC)c(NC(=O)Cn2cnc3onc(-c4ccc(Cl)cc4)c3c2=O)c1,-1.27%
6,COCCn1c(C)cc(O)c(C(c2ccc(OC)cc2)N2CCN(c3ccccc3)CC2)c1=O (configuration not stated),-4.3%
7,Cc1ccc(C)c(-n2nnc(C(=O)Nc3ccc(Br)cc3)c2C)c1,-5.67%
8,COc1ccc(CCNC(=O)c2cc(=O)[nH]c3ccc(S(=O)(=O)N4CCCCC4C)cc23)cc1OC (configuration not stated),-25.1%
9,COc1cc(CCC(=O)OCC(=O)Nc2ccc(C(N)=O)cc2)cc(OC)c1OC,active: 38.6%
10,CCOCCCNC(=O)c1c(NC(=O)c2nc(SC)ncc2Cl)sc2c1CCCC2,4.96%
11,Cc1cn2c(=O)cc(COC(=O)c3ccc(NC(=O)C(C)Oc4ccccc4)cc3)nc2s1 (configuration not stated),-14.2%
12,COc1ccc(OC)c(NC(=O)CCNC(=O)Cn2cnc3ccccc3c2=O)c1,3.01%
13,O=C(NCCc1ccccc1)c1nn(-c2ccccc2Cl)nc1CO,-24.9%
14,O=C(Nc1cc(Cl)cc(Cl)c1)c1cc(S(=O)(=O)N2CCC3(CC2)OCCO3)ccc1F,-2.38%
15,Fc1ccc(Nc2c(-c3ccccn3)nc3ccc(Cl)cn23)cc1,-16.6%
16,COc1cccc(NC(=O)Cc2csc(COc3cccc(C)c3)n2)c1,-18.3%
17,CCOC(=O)c1c(N)n(-c2cc(C)cc(C)c2)c2nc3ccccc3nc12,-0.517%
18,COc1cc2c(cc1OC)C(c1cc3cc4c(cc3[nH]c1=O)OCO4)N(C(=O)C1CC1)CC2 (configuration not stated),active: 32.6%
19,Cc1ccc(N2CCN(S(=O)(=O)c3ccc(-n4cnnn4)cc3)CC2)c(C)c1,11.3%
20,Cc1ccc(Cl)cc1N1CCN(C(=O)c2ccc3c(c2)N(Cc2ccccc2)CCS3)CC1,13.6%
21,CCn1nnc2cc(C(=O)Nc3ccc(OC)cc3)ccc21,1.16%
22,COc1ccc(-n2c(=O)c3c4c(sc3n(Cc3ccc(C(C)(C)C)cc3)c2=O)CCC4)c(OC)c1,-4.39%
23,Cc1ccc(-c2ccc(CCC(=O)O)n2-c2cccc(C)c2C)cc1,-6.24%
24,CCOc1ccc(Br)cc1S(=O)(=O)Nc1cccc(-c2ccc(OC)nn2)c1,-2.65%
25,Cc1ccc(C)c(N2CCN(C(=O)CN3C(=O)COc4ccc(S(=O)(=O)N5CCC(C)CC5)cc43)CC2)c1,17.5%

row,SMILES,inhibition
1,COc1ccc(NC(=O)c2c(C)oc3ccc(O)c(CN4CCCCCC4)c23)cc1,-1.64%
2,COc1ccc(NC(=O)C(NC(=O)C2CCC(C)CC2)C(C)C)cc1 (configuration not stated),6.47%
3,CCC(Sc1ncccc1C(=O)Oc1ccccc1Cl)C(=O)Nc1ccccc1OC (configuration not stated),-20%
4,CCCNC(=O)c1ccc2c(c1)nc(C)n2-c1cccc(C)c1,4.09%
5,Cc1ccc2c(=O)c(C(=O)c3ccccc3)cn(CC(=O)Nc3ccc(C)c(Cl)c3)c2n1,9.29%
6,Cc1nn(C)c2c1c(C(F)(F)F)cc(=O)n2C(C)C(=O)NCCC(C)C (configuration not stated),-3.33%
7,CN1CCN(C(=O)Cn2c(-c3cccs3)cc3ccccc32)CC1,9.21%
8,Cc1ccc(N2C(=O)CS(=O)(=O)C23C(=O)N(Cc2ccccc2C)c2ccccc23)cc1Cl (configuration not stated),-0.437%
9,O=C(Nc1ccnn1C1CCN(CCCc2ccccc2)CC1)c1ccccc1,active: 43.6%
10,COc1ccc(NC(=O)Cn2nc(-c3ccccc3)c3cnc4ccc(C)cc4c32)cc1,17.5%
11,Cc1nc2ccn(Cc3ccco3)c(=O)c2cc1C(=O)Nc1ccc(F)cc1,5.35%
12,COc1ccc(-n2c(=O)[nH]c3cc(C(=O)NCCc4ccc(Cl)cc4)ccc3c2=O)cc1OC,-6.05%
13,Cc1ccc(OCC(=O)Nc2ccc3c(c2)sc(=O)n3C)cc1,11%
14,CCOC(=O)c1c(NC(=O)COc2ccc(CC)cc2)sc2c1CCCC2,-8.56%
15,COc1ccc(CNC(=O)CCc2c(C)c3ccc(OC)c(C)c3oc2=O)cc1OC,-3.18%
16,COC(=O)c1ccc(-n2nnc(-c3nc(-c4ccccc4Cl)no3)c2C)cc1,-3.44%
17,CCNC(=O)C1CCCN(c2ncnc3onc(C)c23)C1 (configuration not stated),-1.29%
18,Cc1ccc(C(=O)c2oc3ccccc3c2NC(=O)c2cc(=O)c3cc(C)ccc3o2)cc1,-14.1%
19,Cc1ccc(NC(=O)c2nnn(Cc3cccc(C(F)(F)F)c3)c2N)c(C)c1,2.11%
20,COc1cccc(Cn2ccn(-c3ccc(F)cc3)c(=O)c2=O)c1,4.33%
21,CSCCC(=O)N1CC[C@@H](N2CCN(c3ccccc3F)CC2)[C@H](O)C1,active: 44.6%
22,O=C(Nc1ccc(Cl)cc1)N1CCC(CN2CCCCCC2)CC1,-11.6%
23,Cc1ccc(-c2nnc(SCC(=O)N3CCCc4ccccc43)o2)cc1,-0.302%
24,CCCCNc1nc(Oc2ccc(=O)n(-c3ccccc3)n2)nc(N(CC)CC)n1,-12.1%
25,Cc1cc(NC(=O)CSc2nc3c([nH]c4ccccc43)c(=O)n2-c2ccccc2F)no1,25.1%

row,SMILES,inhibition
1,CCOC(=O)C1CCN(c2cc(C)nc3c(-c4ccccc4OC)c(C)nn23)CC1,-8.48%
2,O=C(Nc1nnc(S(=O)(=O)N2CCCCCC2)s1)c1ccccc1F,11.7%
3,CCOc1cccc2sc(N3CCN(C(=O)C(C)(C)C)CC3)nc12,8.18%
4,Cc1nc(N2CCOCC2)c2c(C(=O)N(C)Cc3ccccc3)c(C)oc2n1,-1.48%
5,CCc1ccc(CNC(=O)C2CCN(c3nnc(C)c4c(C)n(-c5ccc(C)cc5)nc34)CC2)cc1,8.05%
6,CCOc1ccc(N(C(C)C(=O)NCCSc2ccc(Cl)cc2)S(C)(=O)=O)cc1 (configuration not stated),-15.1%
7,C=CCNCCOCCSc1ccc(Cl)cc1,active: 31.8%
8,Cc1cc(NC(=O)c2cc(-c3ccc(Br)cc3)on2)nn1Cc1ccc(Cl)cc1,-9.52%
9,COc1cc(NC(=O)c2ccc3c(Cl)c4c(nc3c2)CCC4)cc(OC)c1OC,13.6%
10,Cc1ccc(/C=N/NC(=O)c2ccc(N(C)S(=O)(=O)c3ccccc3)cc2)cc1,active: 48.3%
11,CC(C)(CC(=O)OCC(=O)Nc1ccccc1F)CC1=NS(=O)(=O)c2ccccc2N1,0.926%
12,CCOC(=O)Cn1c(=O)c2c(nc(N3CCOCC3)n2Cc2ccccc2)n(C)c1=O,2.08%
13,O=C(Nc1nc2n(n1)C(c1ccccc1)C=C(c1ccc(Cl)cc1)N2)c1ccco1 (configuration not stated),3.08%
14,COc1cccc(Cn2c(SCc3ccc(C(=O)N4CCCCC4)cc3)nc3ccncc32)c1,-4.34%
15,Cc1cc(Cl)ccc1NC(=O)CN1C(=O)COc2ccc(S(=O)(=O)Nc3ccccc3)cc21,3.78%
16,Cc1ccc(CN(Cc2ccco2)C(=O)COc2cccc(C)c2C)o1,-20.2%
17,CCOC(=O)C1CCCN(C(=O)c2ccc3c(c2)sc2nc(-c4ccc(C)cc4C)cn23)C1 (configuration not stated),7.3%
18,CCOc1ccc(-c2nonc2NC(=O)c2oc3cc(C)ccc3c2C)cc1OCC,11.3%
19,O=C(COc1ccc(F)cc1)Nc1nnc(SCc2cc(=O)n3ccccc3n2)s1,-13.5%
20,COc1ccc(C)cc1NC(=O)C(Cc1ccccc1)NS(=O)(=O)c1ccc(Br)s1 (configuration not stated),5.88%
21,COc1ccc(N2Cc3cccc(C(=O)Nc4ccc(Cl)cc4)c3C2=O)cc1,-12%
22,O=C(Nc1nc2cc3c(cc2s1)OCCO3)c1ccc([N+](=O)[O-])o1,active: 37.1%

# — PubChem BioAssay AID485344 (National Center for Advancing Translational Sciences (NCATS), 2010)
